{"source": "ChEMBL document CHEMBL4888484", "about": "“Replenishing the malaria drug discovery pipeline: Screening and hit evaluation of the MMV Hit Generation Library 1 (HGL1) against asexual blood stage Plasmodium falciparum ,using a nano luciferase reporter read-out” (2022)", "note": "Hit rate of the full screen: of about 150,000 compounds, about 540 (0.36%) showed an effect of 50% or more. The list shows a part of the results."}
{"test_system": "Plasmodium falciparum", "test": "Primary screen in NF54 nanoGlo assay, in single point, at 2uM, 72h; a lower Z score goes with more inhibition", "assay_type": "functional, Erythrocyte", "conditions": "timepoint 72 hour", "units": {"% Inhibition": "%"}}
{"smiles": "COc1cccc(CC(=O)NC[C@@](O)(c2ccccc2)C2CC2)c1", "% Inhibition": 26, "Z score": -3.55}
{"smiles": "C[C@H](O)CCNC(=O)Nc1cc(Cl)c(OC(F)F)c(Cl)c1", "% Inhibition": 1, "Z score": -0.07}
{"smiles": "CC[C@@H](CCNC(=O)Nc1ccccn1)NC(=O)Nc1ccccn1", "% Inhibition": -16, "Z score": 2.14}
{"smiles": "CC(C)c1nn(C)cc1-c1nc2ncccn2n1", "% Inhibition": -19, "Z score": 3}
{"smiles": "CC(C)N1CCN(C(=O)c2ccc(-c3cccs3)nc2)CC1", "% Inhibition": -15, "Z score": 2.91}
{"smiles": "Fc1ccc([C@@H]2C=C(c3ccncc3)Nc3nc(C(F)(F)F)nn32)cc1", "% Inhibition": -27, "Z score": 3.22}
{"smiles": "CCc1ccc(C(=O)N2CCCN(c3nc(C4CCOCC4)nc4c3cnn4-c3ccccc3)CC2)cc1", "% Inhibition": 25, "Z score": -4.76}
{"smiles": "Cc1nc(NC(=O)c2c(Br)cnn2C)n[nH]1", "% Inhibition": -3, "Z score": 0.49}
{"smiles": "Cc1nc(C(F)(F)F)sc1C(=O)NCCn1ccccc1=O", "% Inhibition": -13, "Z score": 2.41}
{"smiles": "CN(C[C@H]1CCCCN1C)C(=O)c1cccc(-c2ccc3scnc3c2)c1", "% Inhibition": -15, "Z score": 1.78}
{"smiles": "CCOC1CC(O)C12CCN(c1cc(N3CCOCC3)ncn1)CC2", "note": "(stereo not drawn)", "% Inhibition": -5, "Z score": 0.73}
{"smiles": "CC(C)c1cncnc1N1CCC(Oc2cccc(F)c2)(C(=O)O)CC1", "% Inhibition": -11, "Z score": 2.13}
{"smiles": "CO[C@H]1CS(=O)(=O)C[C@@H]1NC(=O)c1cc(Cl)cn1C", "% Inhibition": -15, "Z score": 1.87}
{"smiles": "CN(C(=O)c1c(C2CCC2)cnn1C)c1ncc(Br)cn1", "% Inhibition": -7, "Z score": 0.91}
{"smiles": "COc1ccc(OC)c2c1cc(C(=O)NCc1ccc3c(c1)OCO3)n2C", "% Inhibition": -4, "Z score": 0.66}
{"smiles": "CCOC(=O)[C@@H]1CCCCN1C(=O)c1cn(C)c2ccc(C)cc2c1=O", "% Inhibition": 9, "Z score": -1.29}
{"smiles": "CC(=O)N(C)CC(=O)Nc1ccccc1NCC1CCCCC1", "% Inhibition": 37, "Z score": -4.96}
{"smiles": "O=C(Cc1cccs1)N(CC(F)(F)F)C1CCOCC1", "% Inhibition": 2, "Z score": -0.28}
{"smiles": "CNC(=O)C[C@H]1C(=O)NCCN1Cc1cnc(-c2cccs2)nc1", "% Inhibition": -2, "Z score": 0.37}
{"smiles": "CC(=O)O[C@](C)(C#CCN1CCOCC1)c1ccccc1", "% Inhibition": -4, "Z score": 0.81}
{"smiles": "Brc1cnc(N2CCCC[C@H]2c2nc(-c3ccccc3)no2)nc1", "% Inhibition": 32, "Z score": -3.64}
{"smiles": "O=C1c2ccccc2NC2(CCCC2)N1CC(F)(F)F", "% Inhibition": -8, "Z score": 1.56}
{"smiles": "CCOC(=O)c1nc(C(CC(C)C)NC(=O)CC2CCOC2)n[nH]1", "note": "(stereo not drawn)", "% Inhibition": -1, "Z score": 0.14}
{"smiles": "Cc1cc(NC(=O)[C@H](C)N2CCN(Cc3ccco3)CC2)no1", "% Inhibition": -18, "Z score": 1.63}
{"smiles": "COc1cccc2c1OCCCn1cc(nn1)CCN(C(=O)CC1CCN(C)CC1)CCNC(=O)[C@H](Cc1ccccc1)NC2=O", "% Inhibition": 7, "Z score": -1.29}
{"smiles": "COc1cc2c(C(=O)O)c(COc3ccc(Cl)cc3)n(C)c2cc1Br", "% Inhibition": -8, "Z score": 1}
{"smiles": "COc1ccccc1N1C(=O)c2ccccc2N[C@]12C(=O)N(Cc1ccccc1F)c1ccccc12", "% Inhibition": -12, "Z score": 1.67}
{"smiles": "COCc1nocc1C(=O)N1CCC(n2cncc2C)CC1", "% Inhibition": -7, "Z score": 0.96}
{"smiles": "CC[C@H](O)Cn1nc(C)nc1-c1cc(C2CC2)nc2ccccc12", "% Inhibition": -12, "Z score": 2.3}
{"smiles": "O=C(Nc1cccnc1)[C@H]1CCCN(c2ccc3nnnn3n2)C1", "% Inhibition": 5, "Z score": -0.6}
{"smiles": "CCn1ncc(CN2CCN(C(=O)CC(C)C)[C@H]3CS(=O)(=O)C[C@H]32)c1C", "% Inhibition": 0, "Z score": -0.06}
{"smiles": "Cc1ccnc(CNC2CCCC(S(C)(=O)=O)C2)c1", "note": "(stereo not drawn)", "% Inhibition": -2, "Z score": 0.28}
{"smiles": "COc1ccc(Cl)cc1N1CCC(N2C(=O)C3CCCN3C2=O)C1", "note": "(stereo not drawn)", "% Inhibition": -1, "Z score": 0.08}
{"smiles": "CO[C@H]1C[C@@H](O)C12CCN(C(=O)Nc1ccccc1F)CC2", "% Inhibition": -5, "Z score": 1}
{"smiles": "O=C(NCCNCc1cnc(C2CCC2)s1)C1CCCC1", "% Inhibition": -10, "Z score": 0.85}
{"smiles": "O=C(NCCc1cn2c(n1)CCCC2)C1CCC1", "% Inhibition": 5, "Z score": -0.53}
{"smiles": "Cc1cc(=O)[nH]c(NCCNc2nccc(N3CCC[C@H](O)C3)n2)n1", "% Inhibition": 1, "Z score": -0.18}
{"smiles": "CN(Cc1ccc(-n2cccn2)cc1)C(=O)c1cnc(O)cn1", "% Inhibition": -8, "Z score": 1.24}
{"smiles": "Cc1cnc(C(=O)N2CCC[C@H]2C(=O)Nc2ccc(Cl)cc2Cl)cn1", "% Inhibition": -1, "Z score": 0.11}
{"smiles": "CCS(=O)(=O)NCCn1nc(-c2ccsc2)cc1C1CC1", "% Inhibition": 24, "Z score": -3.13}
{"smiles": "COC(=O)[C@@H]1CN(C(=O)c2ccc(NC(=O)NC(C)C)cc2)C[C@H]1C", "% Inhibition": 0, "Z score": 0.08}
{"smiles": "Nc1cccnc1-c1cnc2ccc(F)cc2c1", "% Inhibition": -8, "Z score": 0.77}
{"smiles": "CN(C)C[C@H]1CN(Cc2csc(-c3cccs3)n2)CCO1", "% Inhibition": -12, "Z score": 1.9}
{"smiles": "C[C@H](NC(=O)C(C)(C)c1cccnc1)c1cc(Cl)cc2c1OCC2", "% Inhibition": 15, "Z score": -1.95}
{"smiles": "CCc1n[nH]c(C(=O)N[C@@H](C)C2=CCCCC2)c1C", "% Inhibition": -15, "Z score": 1.72}
{"smiles": "CN1C[C@@H](NC(=O)c2ccc(Cl)c(N)c2Cl)CCC1=O", "% Inhibition": -2, "Z score": 0.43}
{"smiles": "CC(=O)N1CCC(C(=O)Nc2ccc3c(c2)OCCCO3)CC1", "% Inhibition": 4, "Z score": -0.48}
{"smiles": "COc1cc(-c2noc(-c3ccccc3)n2)ccc1OCc1ccccc1F", "% Inhibition": -20, "Z score": 2.01}
{"smiles": "CO[C@@H]1CCC[C@@H]2CN(Cc3ccc4c(c3)CCO4)C[C@@H]21", "% Inhibition": -2, "Z score": 0.38}
{"smiles": "COC[C@](C)(NC(=O)CCC(F)(F)F)c1ccccc1", "% Inhibition": -1, "Z score": 0.2}
{"smiles": "COc1cccc(CNC(=O)CS(=O)(=O)C(C)(C)C)c1", "% Inhibition": -13, "Z score": 1.51}
{"smiles": "COCCc1noc(CN(C2CC2)C2CCCCC2C2CCCCC2)n1", "note": "(stereo not drawn)", "% Inhibition": -16, "Z score": 2.98}
{"smiles": "O=C(Nc1cccc(OCCn2cncn2)c1)[C@@H]1CCCc2ccccc21", "% Inhibition": 34, "Z score": -4.61}
{"smiles": "c1ccc(CN2CCC(N3C[C@H](OCC4CC4)C34CCOCC4)CC2)nc1", "% Inhibition": -5, "Z score": 0.86}
